The list shows a part of the results. At the low end of the ranking the order means little.

This assay relates to MYC (p64) + MAX (p21), in MYC:MAX. In words: protein-binding microarray (anti-MAX antibody). The settings on record: PBM: 15 mM Tris-HCl pH 7.5, 100 mM KCl, 0.075% NP40, 7.5 mM beta-mercaptoethanol, 375 ng/ul BSA, 8 ng/ul poly(dA-dT):(dA-dT), 550 ng complex, 60 min, room …; high values mean tight binding; double strand, one strand shown; sequences stand for … in CCGGC…TTAATAGCTAAGATTACTATATCGACG
Turning to TTACAAGTGTTA, the binding signal (log2 normalized fluorescence) is 0.479.

As for TGACTTCGGGTA, the binding signal (log2 normalized fluorescence) was -0.00865.

With TGAATAGGTGTA, the binding signal (log2 normalized fluorescence) came out at 0.0361.

On to TGAGCCCTCGTA, for which the binding signal (log2 normalized fluorescence) is 0.184.

Regarding TGAAGTTCTGTA, the binding signal (log2 normalized fluorescence) was -0.0118.

Turning to GCCCACGTGGTA, the binding signal (log2 normalized fluorescence) was determined as 0.862.

As for TGAATACTAGTA, the binding signal (log2 normalized fluorescence) worked out at 0.0521.

As for TGATCCCAAGTA, the binding signal (log2 normalized fluorescence) was -0.171.

With TGACACGTGATG, the binding signal (log2 normalized fluorescence) was found to be 0.851.

Regarding TGAATCTCCGTA, the binding signal (log2 normalized fluorescence) is 0.0299.

Take TGACACGTGCTA: the binding signal (log2 normalized fluorescence) was found to be 0.869.

Turning to TGACACGTGTAG, the binding signal (log2 normalized fluorescence) came out at 0.834.

Take TGAAGACCAGTA: the binding signal (log2 normalized fluorescence) was found to be 0.106.

Turning to TCACACGTGGTT, the binding signal (log2 normalized fluorescence) amounted to 0.78.

Take TGATGGGAAGTA: the binding signal (log2 normalized fluorescence) amounted to 0.0282.

As for TGAGCGAAGGTA, the binding signal (log2 normalized fluorescence) is -0.088.

On to TGAACCGGGGTA, for which the binding signal (log2 normalized fluorescence) amounted to 0.0495.

Turning to TGAGTAGGCGTA, the binding signal (log2 normalized fluorescence) is -0.0976.

Turning to TGACTAACTGTA, the binding signal (log2 normalized fluorescence) was found to be 0.15.

For the sequence TGAGCCAGAGTA, the binding signal (log2 normalized fluorescence) is -0.182.

For the sequence TGAAGCGCTGTA, the binding signal (log2 normalized fluorescence) worked out at 0.215.

On to TGACCCGTGGTA, for which the binding signal (log2 normalized fluorescence) worked out at 0.405.

As for TGAATGGTTGTA, the binding signal (log2 normalized fluorescence) came to 0.349.

TGAACCGGAGTA: the binding signal (log2 normalized fluorescence) is -0.0317.

As to TGAACTGGCGTA, the binding signal (log2 normalized fluorescence) is -0.108.

Turning to TTACACGTAGCA, the binding signal (log2 normalized fluorescence) came out at 0.256.

In the case of TGAGACGTGGTC, the binding signal (log2 normalized fluorescence) amounted to 0.229.

Regarding TGACATCTTGTA, the binding signal (log2 normalized fluorescence) turned out to be 0.0964.

For the sequence TGAAAGCTGGTA, the binding signal (log2 normalized fluorescence) was -0.00903.

Turning to TGAAGTATCGTA, the binding signal (log2 normalized fluorescence) turned out to be 0.0576.

Take TGACGTGTGGTT: the binding signal (log2 normalized fluorescence) amounted to 0.466.

Regarding TGAGTCATCGTA, the binding signal (log2 normalized fluorescence) is -0.176.

Take TGAGAACAGGTA: the binding signal (log2 normalized fluorescence) came to 0.122.

For TGAGCTGGAGTA, the binding signal (log2 normalized fluorescence) was -0.183.

With TGAAGTTAGGTA, the binding signal (log2 normalized fluorescence) was 0.0412.

For the sequence TGACGCGCGGTA, the binding signal (log2 normalized fluorescence) was 0.422.

With TGACGAAAAGTA, the binding signal (log2 normalized fluorescence) was -0.0542.

For the sequence TGAAGTTGAGTA, the binding signal (log2 normalized fluorescence) was -0.0715.

For TGAGAGGGTGTA, the binding signal (log2 normalized fluorescence) stood at 0.179.

With TGACGAGATGTA, the binding signal (log2 normalized fluorescence) stood at 0.0764.

Take TGAGCTGAAGTA: the binding signal (log2 normalized fluorescence) was -0.119.

With TCACACGTAGCA, the binding signal (log2 normalized fluorescence) amounted to 0.45.

As for TGAATCGCCGTA, the binding signal (log2 normalized fluorescence) was -0.148.

TGAGATGCAGTA: the binding signal (log2 normalized fluorescence) was determined as 0.00237.

Take TGACCGGCCGTA: the binding signal (log2 normalized fluorescence) is 0.0195.

Take TGACGGCGTGTA: the binding signal (log2 normalized fluorescence) came to 0.379.

Regarding TGACCCGCGGTA, the binding signal (log2 normalized fluorescence) was 0.288.

In the case of TTTAACGTGGTA, the binding signal (log2 normalized fluorescence) is 0.523.

In the case of TGACAAGAAGTA, the binding signal (log2 normalized fluorescence) came to 0.0925.

In the case of TGGCACGTAGTA, the binding signal (log2 normalized fluorescence) is 0.32.

With TGAACTTGAGTA, the binding signal (log2 normalized fluorescence) was -0.0729.

On to TGACCCCCGGTA, for which the binding signal (log2 normalized fluorescence) was found to be 0.0361.

Consider TGATAACCAGTA, for which the binding signal (log2 normalized fluorescence) came out at 0.0606.

Consider TGACACCACGTA, for which the binding signal (log2 normalized fluorescence) worked out at 0.523.

With TGAACGTACGTA, the binding signal (log2 normalized fluorescence) stood at 0.0227.

Consider TGAATACGTGTA, for which the binding signal (log2 normalized fluorescence) was determined as 0.283.

On to TGAGGGTGCGTA, for which the binding signal (log2 normalized fluorescence) was 0.295.

As to TGAATAGCCGTA, the binding signal (log2 normalized fluorescence) was 0.0143.

Consider TGGTTCGTGGTA, for which the binding signal (log2 normalized fluorescence) was 0.00818.

On to TCCTATTCGCGA, for which the binding signal (log2 normalized fluorescence) was -0.139.

As for TGAGGTAGGGTA, the binding signal (log2 normalized fluorescence) was -0.0271.

Regarding TGACTCGCAGTA, the binding signal (log2 normalized fluorescence) came to 0.211.

As to TGAAAGAAGGTA, the binding signal (log2 normalized fluorescence) is -0.135.

Take CCTAATTATCAA: the binding signal (log2 normalized fluorescence) is -0.023.

For TGAATGCTAGTA, the binding signal (log2 normalized fluorescence) amounted to 0.11.

Turning to TGAGTTGTCGTA, the binding signal (log2 normalized fluorescence) came to 0.0128.

As for TGATAGGCCGTA, the binding signal (log2 normalized fluorescence) was -0.228.

With TGATCGTACGTA, the binding signal (log2 normalized fluorescence) came to 0.133.

For TGACTGTGAGTA, the binding signal (log2 normalized fluorescence) was determined as 0.00564.

With TGAAGCTGAGTA, the binding signal (log2 normalized fluorescence) is -0.26.

As for TGATCCAGAGTA, the binding signal (log2 normalized fluorescence) was -0.0845.

Regarding TGTCAGGTGGTG, the binding signal (log2 normalized fluorescence) came out at 0.467.

For TGACTACCGGTA, the binding signal (log2 normalized fluorescence) is -0.00418.

TGAAACTCCGTA: the binding signal (log2 normalized fluorescence) turned out to be 0.0547.

As to TGACACGACCTA, the binding signal (log2 normalized fluorescence) was 0.237.

For the sequence TGACTTTCGGTA, the binding signal (log2 normalized fluorescence) was -0.076.

TGACCTCCTGTA: the binding signal (log2 normalized fluorescence) is 0.384.

On to TGACGACTTGTA, for which the binding signal (log2 normalized fluorescence) is -0.0481.

As for TGAGGGGTCGTA, the binding signal (log2 normalized fluorescence) is 0.386.

Consider TGATCGACTGTA, for which the binding signal (log2 normalized fluorescence) was -0.153.

As to TGAGTCGACGTA, the binding signal (log2 normalized fluorescence) worked out at 0.0636.

GGACACTTGGTA: the binding signal (log2 normalized fluorescence) was determined as 0.32.

Turning to TGAGCGGACGTA, the binding signal (log2 normalized fluorescence) is -0.0167.

Regarding TGATCTCAGGTA, the binding signal (log2 normalized fluorescence) came to 0.00788.

As to TGACTCTATGTA, the binding signal (log2 normalized fluorescence) was -0.00932.

As for TGAGTACGAGTA, the binding signal (log2 normalized fluorescence) is -0.0398.

Consider TGATGGAAGGTA, for which the binding signal (log2 normalized fluorescence) was 0.109.

TGAACGTTAGTA: the binding signal (log2 normalized fluorescence) stood at 0.206.

As for TGACCTTTTGTA, the binding signal (log2 normalized fluorescence) is -0.012.

For the sequence TGACTACAAGTA, the binding signal (log2 normalized fluorescence) stood at 0.0188.

As to TGATAACTCGTA, the binding signal (log2 normalized fluorescence) is 0.125.

As to TGATGCAGTGTA, the binding signal (log2 normalized fluorescence) worked out at 0.00507.

For the sequence TGATGTTCGGTA, the binding signal (log2 normalized fluorescence) is 0.113.

Turning to TGAATGCTGGTA, the binding signal (log2 normalized fluorescence) was 0.126.

Regarding TGAACTGGAGTA, the binding signal (log2 normalized fluorescence) was -0.0589.

As to TGGCAGGTGGTA, the binding signal (log2 normalized fluorescence) is 0.416.

Turning to TGAAGTTAAGTA, the binding signal (log2 normalized fluorescence) is -0.144.

TGAGAGCGTGTA: the binding signal (log2 normalized fluorescence) stood at 0.498.

For the sequence TGATTGAGAGTA, the binding signal (log2 normalized fluorescence) was -0.276.

As to TGAGATTGTGTA, the binding signal (log2 normalized fluorescence) was -0.0377.

Turning to TGATCCACTGTA, the binding signal (log2 normalized fluorescence) stood at 0.076.

As to TGAATCAAGGTA, the binding signal (log2 normalized fluorescence) amounted to 0.109.

As for TGAAGGTGCGTA, the binding signal (log2 normalized fluorescence) stood at 0.236.

Turning to TGACACAGCGTA, the binding signal (log2 normalized fluorescence) amounted to 0.201.

Turning to TGAATAACGGTA, the binding signal (log2 normalized fluorescence) was -0.0655.

Regarding TGACTTCCAGTA, the binding signal (log2 normalized fluorescence) was found to be 0.0624.

For TGGCCCGTTGTA, the binding signal (log2 normalized fluorescence) is -0.0579.

TGAAGACTCGTA: the binding signal (log2 normalized fluorescence) was 0.0662.

Turning to TGAACATTGGTA, the binding signal (log2 normalized fluorescence) came out at 0.289.

As to TGAAGTCGTGTA, the binding signal (log2 normalized fluorescence) was found to be 0.228.

With TGAAGCTAAGTA, the binding signal (log2 normalized fluorescence) was -0.283.

Take TGACTCGATGTA: the binding signal (log2 normalized fluorescence) turned out to be 0.337.

Take GACCACGTGGTA: the binding signal (log2 normalized fluorescence) came to 0.741.

For the sequence TGAGCGTTGGTA, the binding signal (log2 normalized fluorescence) stood at 0.234.

Take TGAGAGTTCGTA: the binding signal (log2 normalized fluorescence) is -0.215.

On to TGATAAGCTGTA, for which the binding signal (log2 normalized fluorescence) was -0.106.

As to CATCACGTGGTA, the binding signal (log2 normalized fluorescence) amounted to 0.764.

Turning to TGACACGGCATA, the binding signal (log2 normalized fluorescence) came to 0.297.

Consider TGAATTGTTGTA, for which the binding signal (log2 normalized fluorescence) amounted to 0.0647.

Consider TGAGACACCGTA, for which the binding signal (log2 normalized fluorescence) was 0.145.

Take TGACTGGGTGTA: the binding signal (log2 normalized fluorescence) worked out at 0.195.

For the sequence TGACATGTCGTA, the binding signal (log2 normalized fluorescence) amounted to 0.416.

For the sequence TGACGGCAGGTA, the binding signal (log2 normalized fluorescence) is -0.00507.

With TGACCATGAGTA, the binding signal (log2 normalized fluorescence) worked out at 0.373.

For TGAATCTCTGTA, the binding signal (log2 normalized fluorescence) was -0.00748.

For TGATAGCTAGTA, the binding signal (log2 normalized fluorescence) is -0.158.

Take TGAACTTCGGTA: the binding signal (log2 normalized fluorescence) was -0.0261.

In the case of TGATGTATCGTA, the binding signal (log2 normalized fluorescence) stood at 0.124.

With TGAAGCACCGTA, the binding signal (log2 normalized fluorescence) was 0.16.

For TTACACGGGGTC, the binding signal (log2 normalized fluorescence) was determined as 0.666.

For the sequence TGATCCCTGGTA, the binding signal (log2 normalized fluorescence) came out at 0.0924.

TGATTCACCGTA: the binding signal (log2 normalized fluorescence) came to 0.084.

Turning to TGAGGAGCGGTA, the binding signal (log2 normalized fluorescence) amounted to 0.0241.

In the case of TGAAGTCTCGTA, the binding signal (log2 normalized fluorescence) was 0.103.

Consider TGATGCGTGGTA, for which the binding signal (log2 normalized fluorescence) stood at 0.425.

Turning to TGAACTGTCGTA, the binding signal (log2 normalized fluorescence) was determined as 0.131.

For the sequence TGACGCATCGTA, the binding signal (log2 normalized fluorescence) is 0.152.
